# According to publication PMC4336329 (PLoS ONE, 2015):
# In all, about 310,000 compounds went through this assay and about 14,000 (4.5%) showed an effect of 50% or more. Effects have a minus sign here. This is one part of the list.
# Target: human ether-à-go-go-related gene (hERG) potassium channel (human, UniProt Q12809)
# Test: primary screen, population patch clamp on CHO cells stably expressing hERG
# 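Further: peak tail current of the secondary pulse compared with the same well before compound.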
# human ether-à-go-go-related gene (hERG) potassium channel, sequence (Q12809 whole entry, looked up): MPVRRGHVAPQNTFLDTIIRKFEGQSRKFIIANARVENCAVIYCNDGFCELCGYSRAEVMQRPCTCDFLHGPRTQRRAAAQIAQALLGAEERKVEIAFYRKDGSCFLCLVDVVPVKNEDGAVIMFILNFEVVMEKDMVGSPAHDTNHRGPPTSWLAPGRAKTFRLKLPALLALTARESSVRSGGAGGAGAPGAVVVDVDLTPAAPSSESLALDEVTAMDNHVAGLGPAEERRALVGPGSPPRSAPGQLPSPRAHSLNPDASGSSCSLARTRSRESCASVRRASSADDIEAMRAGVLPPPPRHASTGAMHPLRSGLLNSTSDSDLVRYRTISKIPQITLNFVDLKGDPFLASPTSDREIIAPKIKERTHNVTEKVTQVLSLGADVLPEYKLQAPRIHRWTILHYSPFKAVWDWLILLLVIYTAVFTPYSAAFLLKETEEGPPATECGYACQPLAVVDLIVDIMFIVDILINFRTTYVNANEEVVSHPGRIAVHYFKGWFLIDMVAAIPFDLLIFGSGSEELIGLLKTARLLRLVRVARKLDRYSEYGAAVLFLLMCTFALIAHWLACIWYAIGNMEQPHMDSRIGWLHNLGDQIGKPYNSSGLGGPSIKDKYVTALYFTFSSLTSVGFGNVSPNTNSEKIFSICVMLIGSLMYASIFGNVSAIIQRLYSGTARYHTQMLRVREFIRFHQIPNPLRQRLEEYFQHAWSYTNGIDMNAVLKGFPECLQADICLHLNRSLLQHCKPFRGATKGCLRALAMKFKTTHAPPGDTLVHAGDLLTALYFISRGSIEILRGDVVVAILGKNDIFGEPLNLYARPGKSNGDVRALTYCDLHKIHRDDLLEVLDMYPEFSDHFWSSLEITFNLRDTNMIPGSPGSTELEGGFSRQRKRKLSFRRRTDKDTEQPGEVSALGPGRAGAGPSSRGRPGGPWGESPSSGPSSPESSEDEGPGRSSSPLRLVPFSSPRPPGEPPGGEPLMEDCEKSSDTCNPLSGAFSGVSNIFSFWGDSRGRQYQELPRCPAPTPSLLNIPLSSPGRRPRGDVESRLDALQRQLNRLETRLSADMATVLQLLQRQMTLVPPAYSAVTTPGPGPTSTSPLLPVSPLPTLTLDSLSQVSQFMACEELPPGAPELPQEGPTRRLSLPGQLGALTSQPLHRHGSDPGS
row,SMILES,"hERG current change (%, negative = inhibition) at 10uM [%]"
1,CCC1(C)CC(CCN(Cc2ccco2)C(C)=O)(c2ccccc2)CCO1 (stereo not shown),-6.78
2,CCOC(=O)NCc1ccc(S(=O)(=O)Nc2ccccc2C)cc1,-37.9
3,Cn1cc(C(=O)C(=O)N2CCN(c3ccccc3)CC2)c2ccccc21,0.853
4,Cc1cccc(N2CCN(C(=O)NCc3ccc(F)cc3)CC2)c1C,0.166
5,O=C(CC1S/C(=N/N=C/c2ccco2)NC1=O)Nc1ccccc1 (stereo not shown),14.4
6,CCN(CC)S(=O)(=O)c1ccc(OC)c(NC(=O)c2cccs2)c1,25
7,COC(=O)C1=CO[C@@H](O)C2C(CO)=CCC12 (stereo partly shown),21.6
8,C=C(C)Cn1cnc2cc(C)c(C)cc21,1.55
9,CCOc1ccc(-c2nnc3ccc(SC)nn23)cc1,-4.21
10,Cc1c(CCO)c(=O)[nH]n1S(=O)(=O)c1cccc(C(F)(F)F)c1,9.25
11,Cc1ccc(C(=O)NCCCNC(=O)c2ccc(Cl)cc2)cn1,0.443
12,CC(C)(C)c1ccc(-c2nnc(SCCN3C(=O)c4ccccc4C3=O)o2)cc1,6.33
13,CCOCCCNC(=O)C(Cc1ccccc1)NC(=O)c1ccco1 (stereo not shown),-6.26
14,Cc1cccc2nc(C(F)(F)F)nc(=O)n12,13.6
15,CCC(=O)NCC(c1cccs1)N1CCOCC1.Cl (stereo not shown),7.28
16,CC(O)c1nc2cc([N+](=O)[O-])ccc2n1Cc1ccccc1 (stereo not shown),1.79
17,CCC(=O)c1ccc(OC(=O)C2CCN(C3=NS(=O)(=O)c4ccccc43)CC2)cc1,5.79
18,Cc1nc(SCC(=O)Nc2nc3ccccc3s2)c(C#N)c(C)c1C,18
19,COc1ncnc2sc(-c3ccccc3)cc12,10.4
20,CCCC(=O)Nc1nc(C(=O)OCC)cs1,7.78
21,CCc1nnc(NC(=O)C2(C)COC(c3ccc(OC)cc3)OC2)s1 (stereo not shown),10.1
22,COc1ccc(CCNC(=O)CCn2c(SCC(=O)N3CCCC3)nc3ccccc3c2=O)cc1OC,2.52

row,SMILES,"hERG current change (%, negative = inhibition) at 10uM [%]"
1,CCCn1c(SCC(=O)Nc2cccc(C)n2)nnc1C(C)C,15.8
2,CC(=O)Oc1ccccc1C(=O)Nc1ccccc1,10.3
3,CCC(CC)C(=O)Nc1ccc(-c2cn3cccnc3n2)cc1,4.74
4,CCCOc1cccc(C(=O)N(Cc2ccc(OC)c(OC)c2)C2CCS(=O)(=O)C2)c1 (stereo not shown),-17.4
5,Cc1onc(-c2ccccc2)c1-c1nnc(CN2CCN(S(=O)(=O)c3ccccc3)CC2)o1,-33
6,CCOC(=O)CCCc1c[nH]c2ccccc12,-2.73
7,CC(C)=CC(=O)N1CCC(n2nccc2NC(=O)CCc2ccccc2)CC1,10.3
8,Cc1cc(Cl)c(OCCCCN2CCOCC2)c(Br)c1,-30.2
9,O=C(CSc1nnc(-c2cccs2)n1-c1ccccc1)NCc1ccc2c(c1)OCO2,-43.7
10,Cc1ccccc1C(=O)N/N=C/c1cccc2ccccc12,14.6
11,COc1cc(Br)c(C2C(C#N)=C(N)Oc3n[nH]c(-c4cccnc4)c32)cc1OC (stereo not shown),6.8
12,COc1cccc(CNC(=O)C23CN(Cc4ccccc4)CC2C(c2ccc([N+](=O)[O-])cc2)=NO3)c1 (stereo not shown),-52.1
13,Cc1oc(-c2ccccc2)cc1C(=O)Nc1ccc(N(C)C)cc1,10.3
14,Cc1cc(C)n(-c2ccc(C(=O)OCC(=O)Nc3cc(S(C)(=O)=O)ccc3Cl)cc2)n1,-24.9
15,O=c1c2sccc2[nH]c(=S)n1Cc1ccccc1,14.7
16,O=C(c1cc2cc([N+](=O)[O-])ccc2s1)N1CCOCC1,-23.2
17,CCCc1cc(=O)oc2cc(OCC(=O)N(C)C)c(Cl)cc12,8.47
18,COc1ccc(Br)cc1C(=O)Nc1cccc2ncccc12,7.28
19,CCN1CCN(C(c2cccs2)C(C)NS(=O)(=O)c2ccc(C)cc2)CC1 (stereo not shown),-20
20,COC(=O)c1cn(NC(=O)/C=C/c2ccc(OC)c(OC)c2)c(=O)c2ccccc12,-2.43
21,CCOC(=O)c1c(-c2cccs2)csc1NC(=O)c1ccco1,11.5
22,CC1CN=C(NCc2ccccc2Cl)S1 (stereo not shown),-2.16

row,SMILES,"hERG current change (%, negative = inhibition) at 10uM [%]"
1,CCN1C(=O)[C@H]2[C@@H](c3ccc(-c4ccc(C(C)=O)cc4)c(OC)c3)N[C@@](Cc3ccccc3)(C(=O)OC)[C@H]2C1=O.O=C(O)C(F)(F)F,15.7
2,Cc1cc(F)ccc1S(=O)(=O)N1CCCOC1CNC(=O)C(=O)NCCc1c[nH]c2ccccc12 (stereo not shown),1.18
3,N#C/C(=C\c1ccc([N+](=O)[O-])o1)c1nc2ccccc2[nH]1,15.6
4,COC(=O)[C@@H]1C[C@@H]2CC[C@@H](O)C[C@@H]2N1Cc1ccc(Cl)cc1,23.7
5,O=C(CC1C(=O)NCCN1Cc1ccc(-c2ccccc2)cc1)NCc1ccncc1 (stereo not shown),-25.3
6,Cc1ccccc1COCCN1CCN(S(=O)(=O)c2ccccc2)CCC1=O,3.99
7,O=C(CCN1C(=O)/C(=C/c2ccccc2F)SC1=S)N[C@@H](CO)Cc1ccccc1,5.27
8,CCC(C)(C)NC(=O)C(c1cccs1)N(CC1CCCO1)C(=O)Cn1nnc2ccccc21 (stereo not shown),8.27
9,Cc1ccc(C(=O)CSc2nnc3n2CCCCC3)s1,-1.92
10,CC(CC(=O)N(CCC1=CCCCC1)c1c(N)n(Cc2ccccc2)c(=O)[nH]c1=O)c1ccccc1 (stereo not shown),17.1
11,O=C1Nc2ccccc2N(O)N1c1ccc(Cl)c(Cl)c1,30.8
12,O=C(NCCN1C(=O)S/C(=C\c2ccccc2F)C1=O)C1CC(=O)N(Cc2ccccc2)C1 (stereo not shown),-23.4
13,Cc1c(C#N)c(=O)c(-[n+]2ccccc2)c([S-])n1-c1ccc(Cl)cc1,9.46
14,CC1CCN(C(=O)CNC(=O)Cc2ccccc2)CC1,9.53
15,O=C(C1CCCN(S(=O)(=O)c2cccc3nsnc23)C1)N1CCCCCC1 (stereo not shown),-16.8
16,COCCCNC(=O)CN1C(=O)/C(=C/c2ccccc2C)Sc2ccccc21,4.48
17,CCc1nnc(NC(=O)CCC(=O)N2CCN(C3CCCCC3)CC2)s1,-7.35
18,COc1ccc(OC)c(NC2=C(Cl)C(=O)N(Cc3ccccc3)C2=O)c1,5.06
19,Cc1csc(C(=O)O)c1NC(=O)c1cccc([N+](=O)[O-])c1,15.9
20,Cc1nc2cc(NC(=O)NCc3ccco3)ccc2n1C,0.499
21,COc1ccc(NC(C)=O)c(C)c1,18.2
22,CC(C)Cn1c(N)c(C(=O)COC(=O)C2CCCCC2)c(=O)n(C)c1=O,-48.7

row,SMILES,"hERG current change (%, negative = inhibition) at 10uM [%]"
1,O=C(COc1ccc(-c2ccccc2)cc1)NN=C1CCCC1,-12
2,CCC(=O)N1CCc2cc(S(=O)(=O)NCCC(=O)NCc3ccc(F)cc3)ccc21,-5.55
3,NC(=O)CC(NC(=O)Cc1ccc(Cl)cc1)c1ccc(NC2CCCCCC2)c([N+](=O)[O-])c1 (stereo not shown),15.6
4,COc1ccc(C(=O)N2CCC(C(=O)NCc3ccccn3)CC2)cc1,-16.2
5,O=C(O)C1CCCN1C(=O)C12CC3CC(CC(C3)C1)C2 (stereo not shown),11.4
6,COc1ccc(CN(CC(=O)NCCC(C)C)C(=O)CCC(=O)Nc2nccs2)cc1,4.66
7,CCOc1ccc2nc(NC(=O)COc3ccc(N(C)S(=O)(=O)c4ccc(C)cc4)cc3)sc2c1,20.5
8,O=C(Nc1cccc2c1CCCC2)C1CCCN(S(=O)(=O)c2cccc3nonc23)C1 (stereo not shown),-1.23
9,O=C(Oc1ccc(Oc2ccccc2)cc1)N1CCC(O)CC1,2.31
10,Cl.FC(F)(F)Oc1ccc(Nc2nc(N3CCOCC3)nc(N3CCOCC3)n2)cc1,-13.7
11,CC(C)C(NC(=O)CCNC(=O)c1ccc(C(C)(C)C)cc1)c1nc2ccccc2[nH]1 (stereo not shown),4.54
12,Nc1c(Sc2ccccc2)c(=O)[nH]c(=O)n1Cc1ccccc1,-34.8
13,CC1CC(C)CN(C(=O)CCNC(=O)Cn2cnc3ccccc3c2=O)C1 (stereo not shown),10.1
14,COc1ccc2c(Cl)c(-c3nnc(SCC(N)=O)n3C)sc2c1,10.3
15,O=C(NCc1ccco1)c1cccc(S(=O)(=O)N2CCOCC2)c1,-4.97
16,O=C(Nc1cnc2ccccn2c1=O)c1ccc(Cl)cc1Cl,3.88
17,CC(C)(C)CC(=O)N[C@@H](Cc1ccccc1)c1nc2ccccc2[nH]1,8.12
18,N=C1C(=O)OCC1c1ccccc1NC(=O)CN1CCOCC1 (stereo not shown),13.4
19,Cc1nn(C)c(C)c1S(=O)(=O)N1CCC(C(=O)NCCC2=CCCCC2)CC1,-8.57
20,CN(C)CCNC(=O)Nc1cccc(Cl)c1Cl,-4.25
21,COc1ccc(Cn2nnc(C(=O)Nc3ccc(F)cc3)c2N)cc1,-9.42
22,COCCn1c(SCC(=O)Nc2cc(C)on2)nc2cc(Cl)ccc2c1=O,-3.47
